This is one part of the list.

The experiment has as its target T1, OsWOX13 (Oryza sativa, UniProt Q5QMM3 1-267).
T1 sequence: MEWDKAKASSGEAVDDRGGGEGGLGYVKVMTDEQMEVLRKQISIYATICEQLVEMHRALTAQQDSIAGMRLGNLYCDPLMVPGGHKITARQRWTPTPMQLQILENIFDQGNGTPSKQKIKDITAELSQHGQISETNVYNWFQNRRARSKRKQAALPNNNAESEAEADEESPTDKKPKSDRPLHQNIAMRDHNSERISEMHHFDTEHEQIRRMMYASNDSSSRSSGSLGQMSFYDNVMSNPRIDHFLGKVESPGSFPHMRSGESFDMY
Briefly: protein-binding microarray (RPBM); PBS, 2% BSA, 51.3 ng/ul salmon testes DNA, 50 uM zinc acetate, 200 nM TF, 25 C, 1 h; high values mean tight binding. The conditions noted are these: protein: recombinant; tags: N-terminal polyhistidine and DsRed monomer fusion (pET32a); label: CyDye5-dUTP incorporated in the synthesized complementary strand; 3' TTTTT single-stranded linker to array surface; dsDNA, one strand shown. A digest of the protocol: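 For the binding signal, per-feature fluorescence intensity was read in arbitrary units on an Axon 4000B scanner. Before scanning, a 2% BSA-blocked custom Agilent array made double-stranded with Cy5-dUTP was washed after 1 h at 25 °C with 200 nM protein and 50 µM zinc acetate. The proteins were Ni–NTA-purified transcription factors with N-terminal polyhistidine and DsRed fusions, expressed in E. coli BL21-CodonPlus.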
On to “AGCATAATTTAAACAAATATTTATTTAACAAATAGTTTAACGGAGTCACCTAGTGCAG”, for which the binding signal is 17600 fluorescence intensity (a.u.).

As for “CTGTGCCAGTCAATCAGTCACAGTTGGTAATGCTAGTAAGCGGAGTCACCTAGTGCAG”, the binding signal was 26400 fluorescence intensity (a.u.).

As to “AAAACAAGGGTAGATTGATGAACCAATACAGGGAGAAGATCGGAGTCACCTAGTGCAG”, the binding signal was 5800 fluorescence intensity (a.u.).

“ATTCTCACTGACTGTTTACCAATTACTTCCTTCATCCAATCGGAGTCACCTAGTGCAG”: the binding signal is 7910 fluorescence intensity (a.u.).

On to “TTTGTGAATGATTTGCAGATTTGTGGATGGGAATATATTGCGGAGTCACCTAGTGCAG”, for which the binding signal is 23500 fluorescence intensity (a.u.).

Regarding “GGGTTGAAATTTTAATTTATATATCCTTTCCCAATTCCATCGGAGTCACCTAGTGCAG”, the binding signal is 11000 fluorescence intensity (a.u.).

Consider “GATCCAACCAGTCCCCATTGATTGGGGCCAATGTACTTTCCGGAGTCACCTAGTGCAG”, for which the binding signal is 3610 fluorescence intensity (a.u.).

“TAAAACAAATCAAAGATTACAGACTAGTATGATTTTGACGCGGAGTCACCTAGTGCAG”: the binding signal was 11200 fluorescence intensity (a.u.).

For the sequence “GCAAATTGGATGACTATTACAACATAAATGTGATTCATCACGGAGTCACCTAGTGCAG”, the binding signal was 37300 fluorescence intensity (a.u.).

“ATTTCTATCACCGTAATCAGAAGAGCGTTTATAACACCATCGGAGTCACCTAGTGCAG”: the binding signal is 8800 fluorescence intensity (a.u.).

For “CTGACTGGTCATGGACAGAGATTTAATACACATTCTGCTTCGGAGTCACCTAGTGCAG”, the binding signal is 3160 fluorescence intensity (a.u.).

In the case of “ATCTGTAATTTGTTTTATTATTAGACAACGTTTAATACTTCGGAGTCACCTAGTGCAG”, the binding signal is 14500 fluorescence intensity (a.u.).

In the case of “CAAACAAATTTTGGTCTTTGACAGGCTGAGACCGAATTACCGGAGTCACCTAGTGCAG”, the binding signal was 13400 fluorescence intensity (a.u.).

Turning to “CTCTATTGATTACTGCCTTATTGCCATCTCACTTCGATAACGGAGTCACCTAGTGCAG”, the binding signal is 29300 fluorescence intensity (a.u.).

On to “GCCTTATACATGATTATAATCTTCTAACTTCTTCTTAACTCGGAGTCACCTAGTGCAG”, for which the binding signal is 23900 fluorescence intensity (a.u.).

As for “AGATAATTTAATTGTTAACCATGTATGGCTGTAAGGGTATCGGAGTCACCTAGTGCAG”, the binding signal was 43900 fluorescence intensity (a.u.).

“CATCCTCATTAACGGCAGATTAATACTATTTAGTCCATCTCGGAGTCACCTAGTGCAG”: the binding signal was 3220 fluorescence intensity (a.u.).

With “TTGTATTTGTTAATGGAATGCTGATTGGTGCACAGCAAACCGGAGTCACCTAGTGCAG”, the binding signal is 29900 fluorescence intensity (a.u.).

As to “AGTATAAGATTAATATTAATTCATCCATTTCAGTTATTTCCGGAGTCACCTAGTGCAG”, the binding signal is 5310 fluorescence intensity (a.u.).

In the case of “TCCCTTAACGTCTCCGAATGATTGTAACAGTATATCATCCCGGAGTCACCTAGTGCAG”, the binding signal is 7180 fluorescence intensity (a.u.).

Take “TAGTTTAATCAATTTACGTGTGACCACTAATATAATTAACCGGAGTCACCTAGTGCAG”: the binding signal is 16900 fluorescence intensity (a.u.).

For “GGAACCCTATCATCTAGGCAATCATGCCGGCACAGTGCATCGGAGTCACCTAGTGCAG”, the binding signal was 4440 fluorescence intensity (a.u.).

For “GAATCCATTCATTGATAGTATGATTTTATGAAACTACACTCGGAGTCACCTAGTGCAG”, the binding signal is 7360 fluorescence intensity (a.u.).

As for “ACCACGTTTGATTTAGCCAATCACATTCACCAAGGCAAATCGGAGTCACCTAGTGCAG”, the binding signal was 16100 fluorescence intensity (a.u.).

As for “CTAGAAATTAGGTGATTAATTTATTAAACACAATATTGCCCGGAGTCACCTAGTGCAG”, the binding signal was 56900 fluorescence intensity (a.u.).

With “AGTAATTATTAATTATTTTCCTATCATTTGATTTATTGTTCGGAGTCACCTAGTGCAG”, the binding signal is 35700 fluorescence intensity (a.u.).

Regarding “AATAAATAATTGTCATAATTACCCAATAAGTCCAGCTAACCGGAGTCACCTAGTGCAG”, the binding signal is 26600 fluorescence intensity (a.u.).

As for “CCGAACAGAGCCATAATTAAATTGGGAATACCCTGAATGACGGAGTCACCTAGTGCAG”, the binding signal is 7060 fluorescence intensity (a.u.).

Turning to “AGAGCAATTGACTGACATACCATTATTAAGATGAACTGATCGGAGTCACCTAGTGCAG”, the binding signal was 21100 fluorescence intensity (a.u.).

As to “GCATGATTTGATCGTTTGCCTATAGAAAGTTAATTTAGTACGGAGTCACCTAGTGCAG”, the binding signal is 16500 fluorescence intensity (a.u.).

Turning to “GCACATCTTCCTTAATTGCCAAAAGAGTAAATTTCACGAACGGAGTCACCTAGTGCAG”, the binding signal was 8910 fluorescence intensity (a.u.).

“CACGGAAAATAAATTGAGGGAAGCTGTGGAGGTGCCGAGTCGGAGTCACCTAGTGCAG”: the binding signal is 8360 fluorescence intensity (a.u.).

As for “TTTTAATGTAATTTTCTCGCAAAATGAAAATTATGACATCCGGAGTCACCTAGTGCAG”, the binding signal was 7470 fluorescence intensity (a.u.).

As to “ATTTTATCAATCACGCCCATAAAATTTGGACGCAACTAGTCGGAGTCACCTAGTGCAG”, the binding signal is 33000 fluorescence intensity (a.u.).

“AAATAATTAATGACCTCCTAATATTTCATCATCGTCTTCTCGGAGTCACCTAGTGCAG”: the binding signal is 17800 fluorescence intensity (a.u.).

“AACCAATCAATCGTTAGAAAGATCACCTCCAGGGCTCCAGCGGAGTCACCTAGTGCAG”: the binding signal is 27800 fluorescence intensity (a.u.).

With “CTCAAAGTCTCAAACCCAGCAGTTAGCAACTTCCATTTCTCGGAGTCACCTAGTGCAG”, the binding signal was 4880 fluorescence intensity (a.u.).

“TGTGATAGGCTTCAATGTTTAATCTCACCATCGATTGTTACGGAGTCACCTAGTGCAG”: the binding signal is 5800 fluorescence intensity (a.u.).

On to “ATATCGAAATTGATGCTTGACCAGTCAACACTACTTAATCCGGAGTCACCTAGTGCAG”, for which the binding signal was 9110 fluorescence intensity (a.u.).

Take “CAGACTAAATTTCAGTCATTGAATGATGAAAAGAAAGCACCGGAGTCACCTAGTGCAG”: the binding signal was 19600 fluorescence intensity (a.u.).

Consider “TACACCGATCCATGATTGGTACATAGTACGCCGGTGAATCCGGAGTCACCTAGTGCAG”, for which the binding signal is 14000 fluorescence intensity (a.u.).

For “GATTGGATTGGATTGTTTTGCTGGCTCGCTCTCTCTCTCTCGGAGTCACCTAGTGCAG”, the binding signal was 13600 fluorescence intensity (a.u.).

These data come from article PMC7819943, “Rice protein-binding microarrays: a tool to detect cis-acting elements near promoter regions in rice”.
